Measured values from publication PMC3599651.
These are yes or no findings as the source states them, for the method shown. For some assays here: In cells and extracts the contact can be indirect. Some results given as binding are weak or reduced against the parent protein; the word gives no strength. For some assays here: Where a sequence is shown, tags or fusion partners need not be part of it. Blank lines part the entries; values can stand above or below the binder they belong to.

By UniProt entry, the sequences of proteins in these tests, tags left out.
UniProt Q99418: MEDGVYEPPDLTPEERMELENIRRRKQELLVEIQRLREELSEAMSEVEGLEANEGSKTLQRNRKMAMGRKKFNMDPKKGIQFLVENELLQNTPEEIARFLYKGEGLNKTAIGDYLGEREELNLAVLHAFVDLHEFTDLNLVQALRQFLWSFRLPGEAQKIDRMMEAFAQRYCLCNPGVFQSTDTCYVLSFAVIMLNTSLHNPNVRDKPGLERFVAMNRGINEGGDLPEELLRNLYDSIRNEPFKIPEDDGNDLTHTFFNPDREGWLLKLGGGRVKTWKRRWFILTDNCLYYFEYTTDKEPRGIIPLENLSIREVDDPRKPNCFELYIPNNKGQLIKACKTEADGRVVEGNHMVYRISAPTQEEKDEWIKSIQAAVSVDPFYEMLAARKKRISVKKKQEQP

Experiments:
[1] = molecular target: VN-flag-Dock180 (full-length), in HEK 293 (UniProt Q14185); assay: co-IP; HEK 293 cells co-transfected with Dock180 and GRASP constructs; lysis in 50 mM Tris pH 7.5, 150 mM NaCl, 1% Triton X-100; Dock180 immunoprecipitated with M2 anti-flag resin overnight at 4 °C; Western blot
[2] = molecular target: flag-tagged Dock180 (wild type) (UniProt Q14185); assay: as above
[3] = molecular target: VN-flag-Del80-Dock180 (truncation of the first 80 amino acids, lacks the SH3 domain), in HEK 293 (UniProt Q14185); assay: as above
[4] = molecular target: VN-Dock180 (full length), in MDCK cells (UniProt Q14185); assay: split reporter; BiFC with split Venus (VN and VC fusions) co-transfected into MDCK cells plated on fibronectin coated coverslips; fixed after 18 hours; YFP fluorescence
[5] = molecular target: VN-Del80-Dock180, in MDCK cells (UniProt Q14185); assay: as above
[6] = molecular target: VN-cytohesin 2 (UniProt Q99418); assay: as above
[7] = molecular target: T1, Flag-Dock180 N-terminal 80 amino acids (SH3 domain) (UniProt Q14185); assay: pull-down; Flag-Dock180 (N-terminal 80 amino acids) held on M2-Flag resin; eluted GST-GRASP added in TBS, rotated 2 hours at 4 °C; M2-Flag gel alone as control; GelCode staining and Western blot; both purified
T1 sequence: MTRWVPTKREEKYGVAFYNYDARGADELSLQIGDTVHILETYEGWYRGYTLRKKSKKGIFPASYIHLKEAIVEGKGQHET

binding [1]: binds | binding [2]: binds | binding [3]: no binding
B1: HA-tagged wild type GRASP (protein, UniProt Q7Z6J2 1-395)
chain: MTLRRLRKLQQKEEAAATPDPAARTPDSEVAPAAPVPTPGPPAAAATPGPPADELYAALEDYHPAELYRALAVSGGTLPRRKGSGFRWKNLSQSPEQQRKVLTLEKEDNQTFGFEIQTYGLHHREEQRVEMVTFVCRVHESSPAQLAGLTPGDTIASVNGLNVEGIRHREIVDIIKASGNVLRLETLYGTSIRKAELEARLQYLKQTLYEKWGEYRSLMVQEQRLVHGLVVKDPSIYDTLESVRSCLYGAGLLPGSLPFGPLLAVPGRPRGGARRARGDADDAVYHTCFFGDSEPPALPPPPPPARAFGPGPAETPAVGPGPGPRAALSRSASVRCAGPGGGGGGGAPGALWTEAREQALCGPGLRKTKYRSFRRRLLKFIPGLNRSLEEEESQL

binding [4]: binds | binding [5]: no binding | binding [6]: binds
B2: VC-GRASP (protein, UniProt Q7Z6J2 1-395)
chain: B1 chain

binding [7]: binds
B3: GST-GRASP (full length GRASP fused to GST) (protein, UniProt Q7Z6J2 1-395)
chain: B1 chain

binding [4]: no binding
B4: VC-GRASP lacking the first 82 amino acids of GRASP (domain or fragment, UniProt Q7Z6J2 83-395)
chain: GSGFRWKNLSQSPEQQRKVLTLEKEDNQTFGFEIQTYGLHHREEQRVEMVTFVCRVHESSPAQLAGLTPGDTIASVNGLNVEGIRHREIVDIIKASGNVLRLETLYGTSIRKAELEARLQYLKQTLYEKWGEYRSLMVQEQRLVHGLVVKDPSIYDTLESVRSCLYGAGLLPGSLPFGPLLAVPGRPRGGARRARGDADDAVYHTCFFGDSEPPALPPPPPPARAFGPGPAETPAVGPGPGPRAALSRSASVRCAGPGGGGGGGAPGALWTEAREQALCGPGLRKTKYRSFRRRLLKFIPGLNRSLEEEESQL
